This note sets out measurements from PubChem BioAssay (NCI).

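Tested at 5 concentrations; 48 h exposure; 96-well plates; endpoints linearly interpolated, else capped at highest concentration. GI50: concentration for 50% inhibition of growth. TGI denotes the concentration required for complete inhibition of growth.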

This assay has as its system NCI-H322M lung. Briefly: inhibition of tumour cell growth, NCI panel, 48 h.

On to `O=C(Nc1ccc(-c2ccc3c(c2)NC(=O)/C3=C\c2ccc[nH]2)cc1)Nc1ccc(Cl)c(C(F)(F)F)c1`, for which the GI50 was 1.63 µM and the TGI turned out to be 11.3 µM.
